# Paper PMC5700166
# This is a selection; strong and weak results do not stand in their true shares. The list includes weakly bound sequences.
# Assays:
# Test in all cases: protein-binding microarray (PBM)
# Details in all cases: PBM: ~300 nM protein, 6 mM HEPES pH 7.8, 80 mM KCl, 0.5 mM EDTA, 0.5 mM EGTA, 6% glycerol, 35 ng/ul poly-dIdC, 1% milk, 1 h, room temperature; Ap Aiptasia and Nv Nematostella (sea anemones) / Co Capsaspora / Aq Amphimedon (sponge) / Dm Drosophila / Hu human; RHD is the Rel homology domain; high values mean tight binding; most listed sequences are background and not binding sites; double strand, one strand shown
# [1] = target: T1, GST-Ap-NF-kB RHD (UniProt A0A913YAJ5)
# T1 sequence: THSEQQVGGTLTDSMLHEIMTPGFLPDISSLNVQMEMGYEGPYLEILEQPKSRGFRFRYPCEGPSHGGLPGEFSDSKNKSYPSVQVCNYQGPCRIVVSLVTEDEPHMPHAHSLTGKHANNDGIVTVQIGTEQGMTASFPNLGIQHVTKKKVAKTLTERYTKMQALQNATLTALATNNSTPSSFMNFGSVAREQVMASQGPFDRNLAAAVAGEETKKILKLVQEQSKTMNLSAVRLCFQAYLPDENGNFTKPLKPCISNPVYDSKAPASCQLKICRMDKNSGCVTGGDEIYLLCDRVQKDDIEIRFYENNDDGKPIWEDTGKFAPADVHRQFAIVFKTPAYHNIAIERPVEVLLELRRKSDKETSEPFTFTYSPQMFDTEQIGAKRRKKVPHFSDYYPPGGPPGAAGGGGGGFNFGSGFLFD
# [2] = target: T2, GST-Nv-NF-kB (Cys allele) (UniProt E5G601)
# T2 sequence: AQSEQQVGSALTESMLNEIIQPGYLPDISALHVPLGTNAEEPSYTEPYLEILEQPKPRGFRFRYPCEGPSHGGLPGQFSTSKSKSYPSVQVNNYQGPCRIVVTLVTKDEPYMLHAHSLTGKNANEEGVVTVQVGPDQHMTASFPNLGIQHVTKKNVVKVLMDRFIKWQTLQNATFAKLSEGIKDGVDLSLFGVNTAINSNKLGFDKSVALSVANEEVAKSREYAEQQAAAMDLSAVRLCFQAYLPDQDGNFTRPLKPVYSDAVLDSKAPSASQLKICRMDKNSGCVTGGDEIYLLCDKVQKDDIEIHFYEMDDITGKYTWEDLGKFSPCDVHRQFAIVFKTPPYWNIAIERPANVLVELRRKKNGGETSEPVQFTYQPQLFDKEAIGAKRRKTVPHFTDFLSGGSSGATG
# [3] = target: T3, GST-Co-NF-kB (UniProt F1ARL5)
# T3 sequence: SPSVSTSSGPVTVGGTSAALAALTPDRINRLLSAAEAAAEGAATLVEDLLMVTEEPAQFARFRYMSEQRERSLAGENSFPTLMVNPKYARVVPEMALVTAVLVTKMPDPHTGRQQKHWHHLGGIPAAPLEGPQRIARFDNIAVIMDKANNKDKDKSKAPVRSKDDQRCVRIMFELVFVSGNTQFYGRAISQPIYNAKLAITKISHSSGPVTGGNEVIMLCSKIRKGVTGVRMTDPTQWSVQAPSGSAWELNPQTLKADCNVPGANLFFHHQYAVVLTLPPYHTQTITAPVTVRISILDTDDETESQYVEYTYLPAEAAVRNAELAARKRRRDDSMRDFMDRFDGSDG
# [4] = target: T4, GST-Dm-Relish (UniProt Q94527)
# T4 sequence: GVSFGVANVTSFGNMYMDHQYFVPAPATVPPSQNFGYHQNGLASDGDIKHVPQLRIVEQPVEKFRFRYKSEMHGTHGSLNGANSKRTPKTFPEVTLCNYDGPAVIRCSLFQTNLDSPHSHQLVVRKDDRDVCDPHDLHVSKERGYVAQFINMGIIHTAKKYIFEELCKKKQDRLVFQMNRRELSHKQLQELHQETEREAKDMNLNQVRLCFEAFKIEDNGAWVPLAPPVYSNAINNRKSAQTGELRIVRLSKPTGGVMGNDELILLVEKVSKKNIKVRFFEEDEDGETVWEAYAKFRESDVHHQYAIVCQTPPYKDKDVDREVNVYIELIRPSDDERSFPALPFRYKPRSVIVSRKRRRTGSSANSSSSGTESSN
# [5] = target: T5, GST-Aq-NF-kB (UniProt A9Y5G7)
# T5 sequence: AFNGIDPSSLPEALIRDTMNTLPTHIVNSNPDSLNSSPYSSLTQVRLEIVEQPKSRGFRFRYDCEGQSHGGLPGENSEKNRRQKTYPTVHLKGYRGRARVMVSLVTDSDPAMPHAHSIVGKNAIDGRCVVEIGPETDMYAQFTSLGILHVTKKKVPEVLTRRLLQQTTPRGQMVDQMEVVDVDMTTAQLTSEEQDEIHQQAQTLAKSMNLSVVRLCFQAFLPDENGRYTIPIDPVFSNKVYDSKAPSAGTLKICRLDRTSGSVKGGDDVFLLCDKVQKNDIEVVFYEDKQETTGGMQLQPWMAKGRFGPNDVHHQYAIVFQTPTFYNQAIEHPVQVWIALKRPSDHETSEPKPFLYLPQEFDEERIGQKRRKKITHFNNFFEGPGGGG
Sequence,binding signal [1] [z-score],binding signal [2] [z-score],binding signal [3] [z-score],binding signal [4] [z-score],binding signal [5] [z-score]
CCGATTAACATCATGCACTTGCGTGATGTTAATCGGGTCTTGATTCGCTTGACGCTGCTG,-0.899,-0.149,-1.33,-0.362,-0.342
CCGATTAACATCAGCCTATACCCTGATGTTAATCGGGTCTTGATTCGCTTGACGCTGCTG,0.292,-0.0737,0.572,-0.667,0.498
CCGATTAACATCAGGGCAGTCCATGATGTTAATCGGGTCTTGATTCGCTTGACGCTGCTG,0.42,-0.143,-0.0464,-0.2,1.1
CCGATTAACATCAGACATTTTTCTGATGTTAATCGGGTCTTGATTCGCTTGACGCTGCTG,-0.669,-0.275,-0.946,-0.173,-0.376
CCGATTAACATCATCGTCGCCTATGATGTTAATCGGGTCTTGATTCGCTTGACGCTGCTG,0.0836,-0.27,-0.988,-0.348,-0.56
CCGATTAACATCACTATCCTTGGTGATGTTAATCGGGTCTTGATTCGCTTGACGCTGCTG,-0.103,0.475,0.725,0.232,-0.051
CCGATTAACATCAGGAAAATTACTGATGTTAATCGGGTCTTGATTCGCTTGACGCTGCTG,-0.751,-0.116,0.35,1.67,0.65
CCGATTAACATCACACTACATCGTGATGTTAATCGGGTCTTGATTCGCTTGACGCTGCTG,-0.882,-0.285,-0.819,0.136,-0.763
CCGATTAACATCACGGAGTTTCCTGATGTTAATCGGGTCTTGATTCGCTTGACGCTGCTG,0.0444,-0.223,0.491,0.581,3.34
CCGATTAACATCAACCCTGGAAGTGATGTTAATCGGGTCTTGATTCGCTTGACGCTGCTG,0.0267,-0.872,0.53,-0.0153,0.0225
